Consider 96 compounds from PubChem BioAssay AID485344 (National Center for Advancing Translational Sciences (NCATS), 2010).

What is called inhibition is the change of the read-out against control, counted positive when it falls.

Hit rate of the full screen: of about 340,000 compounds, about 6,900 (2%) were called active. Cut-off read from the data, not from the text of the source: active = inhibition above about 30%; inactive = below that, where a call was filed. The entries are a selection whose mix differs from that of the whole data set. Where no call is shown, the source filed none.

UniProt P14416, sequence (P14416 whole entry, looked up): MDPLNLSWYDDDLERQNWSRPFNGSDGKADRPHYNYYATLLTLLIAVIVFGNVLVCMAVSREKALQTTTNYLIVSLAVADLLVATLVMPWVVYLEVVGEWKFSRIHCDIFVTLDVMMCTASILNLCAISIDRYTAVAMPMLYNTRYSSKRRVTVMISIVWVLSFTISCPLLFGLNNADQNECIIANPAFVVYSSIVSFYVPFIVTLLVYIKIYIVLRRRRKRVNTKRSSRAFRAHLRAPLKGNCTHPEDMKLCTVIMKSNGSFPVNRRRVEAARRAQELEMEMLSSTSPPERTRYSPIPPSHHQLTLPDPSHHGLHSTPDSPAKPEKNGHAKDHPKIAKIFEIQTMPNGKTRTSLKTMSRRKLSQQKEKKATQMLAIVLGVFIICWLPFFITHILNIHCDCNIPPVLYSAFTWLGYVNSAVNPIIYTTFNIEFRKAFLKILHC

The experiment has as its target D(2) dopamine receptor (Homo sapiens) (UniProt P14416). The experiment in a line: HTS Assay for Allosteric Antagonists of the Human D2 Dopamine Receptor: Primary Screen for Antagonists. Note: 0% is about no effect. The settings on record: HEK293 TREx D2 cells, calcium flux, dopamine EC80; at 10 µM; stronger effect = higher value. Put shortly:
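Inhibition of EC80 dopamine-driven calcium flux, recorded kinetically, defines activity here; cells are a tetracycline-induced HEK293 T-REx line expressing force-coupled D2.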
Consider `CCOc1ccccc1Nc1sc(C(=O)c2ccccc2)c(N)c1S(=O)(=O)c1ccc(C)cc1`, for which the inhibition stood at 15.4%.

In the case of `O=C(Nc1ccc2oc(-c3ccc4ccccc4c3)nc2c1)c1ccc(Cl)c(Cl)c1`, the inhibition is -1.6%.

For `Cc1ccc(CCNC(=O)c2cc3c(-c4ccccc4F)nn(C)c3s2)cc1`, the inhibition is -7.91%.

`COc1ccc(OC)c(NC(=O)c2cn(CC(C)C)c(=O)c3cc(OC)c(OC)cc23)c1`: the inhibition was 8.15%.

Consider `CCOc1ccc(NC(=O)CCCc2nnc3n(C)c(=O)c4sccc4n23)cc1`, for which the inhibition is -2.52%.

Regarding `O=C(NCc1ccccc1F)C(=O)NCC(c1ccco1)S(=O)(=O)c1cccs1` (stereo unspecified), the inhibition was found to be 10.3%.

`CC1=C(C(=O)Nc2ccccc2)C(c2cccc(Cl)c2)n2nc(SCC(=O)c3ccc(C)cc3)nc2N1` (stereo unspecified): the inhibition was found to be 15.2%.

Consider `O=C(CSc1nc(-c2ccccc2)nc2c1Cc1ccccc1O2)N1CCCCC1`, for which the inhibition worked out at 13.3%.

For `O=c1[nH]c2ccc(NCc3ccc(-c4ccccc4)o3)cc2[nH]1`, the inhibition is -3.81%.

For the compound `Cc1ccc(Cn2c(=O)n(CCCCC(=O)NCc3ccccc3Cl)c(=O)c3ccccc32)cc1`, the inhibition came to 3.75%.

Regarding `Cc1cccc(OCC(=O)Nc2ccccc2C(=O)OCc2cc(=O)n3nc(C)sc3n2)c1`, the inhibition is -0.243%.

Turning to `O=C(Nc1nc2n(n1)C(c1ccc(Cl)cc1)CC(c1ccc(Cl)cc1)N2)c1ccco1` (stereo unspecified), the inhibition is active: 31.9%.

Turning to `COc1ccc(OCC(=O)OCc2cc(=O)n3nc(C4CC4)sc3n2)cc1`, the inhibition is 2.97%.

`CCCCOC(=O)c1ccc(NC(=O)c2cc(-c3cccs3)on2)cc1`: the inhibition stood at 4.61%.

Consider `CCOC(=O)c1c(NC(=O)/C=C/c2ccc(C)cc2)sc2c1CCCC2`, for which the inhibition was -7.54%.

On to `Cc1ccc(Nc2c(-c3ccc(C)s3)nc3ncccn23)cc1`, for which the inhibition was 6.01%.

For the compound `O=C(NCCc1ccc(Cl)cc1)c1cc(-c2ccc(Cl)cc2)n[nH]1`, the inhibition was -8.2%.

On to `Cc1ccc(CNC(=O)CCCc2nnc3n(C)c(=O)c4sccc4n23)cc1`, for which the inhibition was -9.56%.

With `CCC(C)NC(=O)c1ccc2nc(CCc3ccccc3)oc2c1` (stereo unspecified), the inhibition was 8.32%.

Regarding `Cc1ccc(NC(=O)C(=O)NCC(c2ccc3c(c2)OCO3)N2CCOCC2)cc1C` (stereo unspecified), the inhibition was -8.03%.

Turning to `COc1ccccc1CNC(=O)c1ccc(-c2nc(CS(=O)(=O)c3ccc(C)cc3)c(C)o2)cc1`, the inhibition was 11.4%.

For the compound `CC(C)CC(=O)Nc1ccccc1OCc1cc(=O)n2ccccc2n1`, the inhibition is -9.69%.

Consider `CC1(C)CC(=O)c2c(oc3c(Cl)cc(NS(=O)(=O)c4ccc(Br)cc4)cc23)C1`, for which the inhibition amounted to 11.7%.

In the case of `Cc1c(Cl)c(C(F)(F)F)nn1CC(=O)NCc1ccco1`, the inhibition is active: 39.9%.

With `CC(=O)N1CCc2c(sc3c2c(=O)n(-c2cc(Cl)ccc2C)c(=O)n3Cc2ccccc2F)C1`, the inhibition was -12.3%.

Take `O=C(Nc1ccc(Br)cc1F)N1CCC(CN2CCc3ccccc3C2)CC1`: the inhibition was -21.6%.

Take `COC(=O)c1cc(Cl)ccc1NC(=O)CSc1ncc(S(=O)(=O)c2ccc(Br)cc2)c(=O)[nH]1`: the inhibition is -2%.

Regarding `O=c1c2cc(NC(=S)NCCCN3CCC(Cc4ccccc4)CC3)ccc2nc2n1CCCCC2`, the inhibition was active: 51.8%.

`CC(C)(C)OC(=O)N1CCC(c2c(C(=O)N3CCCCC3)cnn2-c2cccc(F)c2)CC1`: the inhibition is 2.93%.

`Clc1cccc(Cl)c1CN1CCN(c2ncccn2)CC1`: the inhibition was active: 46.3%.

Take `CCCCn1c(SCC(=O)Nc2ccc(OCC)cc2)nc2ccsc2c1=O`: the inhibition was -16.7%.

For the compound `COc1cc(OC)c(NC(=O)c2noc3c2CSc2ccccc2-3)cc1Cl`, the inhibition stood at 11.4%.

Take `CC(=O)c1ccc(N2CCN(C(=O)CCc3nnc4n(C)c(=O)c5sccc5n34)CC2)cc1`: the inhibition turned out to be 11.6%.

On to `Cc1ccc(C)c(NC(=O)CSc2nnc(-c3cc4occc4n3C)n2-c2ccccc2C)c1`, for which the inhibition stood at 3.96%.

For the compound `CCc1ccccc1NC(=O)[C@@H](c1ccccc1)N1Cc2ccccc2C1=O`, the inhibition was -11.3%.

For the compound `Cc1ccc(NS(=O)(=O)c2cc3[nH]c(=O)c(=O)[nH]c3cc2C)cc1N(C)C`, the inhibition turned out to be 11.1%.

With `Cc1ccc(CNC(=O)CSc2ncc3c(n2)-c2ccc(Cl)cc2N(Cc2ccccc2)S3(=O)=O)cc1`, the inhibition was found to be 5.84%.

For `Cc1cccc(C(=O)Nc2sc3c(c2C(=O)NC(C)C)CCCC3)c1`, the inhibition was -3.68%.

`CCOC(=O)c1cc(S(=O)(=O)NCc2cccc(Cl)c2)[nH]n1`: the inhibition worked out at 0.511%.

Consider `CC(=O)Nc1ccc(CN2CCN(c3cccc(C(F)(F)F)c3)CC2)cc1`, for which the inhibition was active: 42.7%.

As to `S=C(NCCc1ccccc1)N1CCc2ccccc2C1`, the inhibition was active: 40.8%.

For the compound `CCOC(=O)c1cnc2cc(F)c(F)cc2c1Nc1ccccc1O`, the inhibition was 13.4%.

Take `COc1cc(C(CC(=O)Nc2cccc(C(C)=O)c2)N2Cc3ccccc3C2=O)cc(OC)c1OC` (stereo unspecified): the inhibition worked out at 3.32%.

Turning to `COc1cccc(C2C=C(c3ccccc3)Nc3c(C(=O)Nc4ccccc4)cnn32)c1OC` (stereo unspecified), the inhibition was determined as 12.3%.

As to `CC(=O)Nc1nonc1-c1nnc(SCC(=O)Nc2cc(Cl)ccc2C)n1C`, the inhibition was -11.2%.

Turning to `Cc1c(O)c(CN2CCCCC2)cc2c1oc(=O)c1ccccc12`, the inhibition was active: 65.9%.

As for `CCOC(=O)c1c(NC(=O)/C=C/c2ccc(C)cc2)sc(C(C)=O)c1C`, the inhibition stood at 2.79%.

Regarding `CC(=O)C1=C(c2ccc(Cl)c(Cl)c2)N(C(C)=O)n2c(nnc2-c2ccccc2)S1`, the inhibition worked out at 2.95%.

On to `O=C(COCc1cc(-c2ccc(F)cc2)on1)Nc1cc(Cl)ccc1O`, for which the inhibition turned out to be 5.77%.

Take `COc1ccc(CCNC(=O)CCCn2c(=O)c3ccccc3n(Cc3ccccc3C#N)c2=O)cc1OC`: the inhibition was -4.95%.

In the case of `COc1cccc2cc(-c3nc(Nc4cccc(C)c4C)sc3C)c(=O)oc12`, the inhibition is -4.68%.

As for `Nc1nonc1C(=O)NCCNCc1ccccc1F`, the inhibition came out at 7.9%.

As for `CCOC(=O)c1ccc(N2C(=O)c3n[nH]c(-c4cccs4)c3C2c2ccc(CC)cc2)cc1` (stereo unspecified), the inhibition was determined as 15%.

On to `O=S(=O)(Nc1ccc(F)c(Cl)c1)c1ccc(Br)s1`, for which the inhibition turned out to be 16.7%.

On to `Cc1cccc(N2CCN(C(=O)Cn3ncc4c5ccccc5n(C)c4c3=O)CC2C)c1` (stereo unspecified), for which the inhibition was -2.4%.

Regarding `O=c1c(S(=O)(=O)c2ccccc2)cn(Cc2ccc(F)cc2)c2cc(N3CCOCC3)c(F)cc12`, the inhibition was -1.99%.

Take `COc1ccc(C(=O)c2sc3nc(-c4ccc(C)cc4)cc(C(F)(F)F)c3c2N)cc1`: the inhibition is -22.5%.

Take `COc1cc(OC)cc(C(=O)Nc2ccc(-c3nc4cc(C(C)C)ccc4o3)cc2)c1`: the inhibition is 4.17%.

Regarding `Cc1ccc(C)c(N2CCN(S(=O)(=O)c3ccc(-c4coc(C)n4)cc3)CC2)c1`, the inhibition came out at 8.19%.

With `CCOC(=O)C(CC)n1nc(C)c2c(C)n(-c3ccc(C)cc3)nc2c1=O` (stereo unspecified), the inhibition was found to be 5.69%.

In the case of `CCCCN(CCCNC(=O)c1cc(Nc2ccc(OC)cc2)nc2ccccc12)Cc1ccccc1`, the inhibition was determined as 6.5%.

As for `Cc1ccc(NC(=O)c2ccc(Cl)cc2Cl)c(C(=O)c2ccccc2)c1`, the inhibition is -5.7%.

`Cc1ccc(Cn2c(C)c(CNCC(C)c3ccccc3)c(C(=O)O)c2C)cc1` (stereo unspecified): the inhibition stood at 0.268%.

In the case of `CCOc1ccc(-c2cc3c(=O)n(Cc4nc(-c5ccccc5OCC)oc4C)ccn3n2)cc1Cl`, the inhibition was 14.1%.

For `O=S(=O)(NCc1ccc(Cl)cc1)c1ccc2[nH]c3c(c2c1)CCCC3`, the inhibition stood at 6.15%.

Turning to `O=C(NCCSc1c[nH]c2ccccc12)C1CC1`, the inhibition was active: 36.4%.

For the compound `CCC(CC)C(=O)Nc1ccccc1SCc1cc(=O)c2cccc(C)c2[nH]1`, the inhibition is -6.65%.

For `COCCCNC(=O)C1CCC(Cn2c(=O)c3sccc3n(C)c2=O)CC1` (stereo unspecified), the inhibition is 2.3%.

For `CCOC(=O)C1CCN(c2nc3c(S(=O)(=O)c4ccccc4)nnn3c3ccc(Cl)cc23)CC1`, the inhibition was -0.823%.

With `CCOC(=O)c1ccc2nc(C)cc(Nc3ccc(OC(C)C)cc3)c2c1`, the inhibition worked out at 3.89%.

Take `CCCCc1ccc(-n2nc3cc(Cl)c(NC(=O)c4ccc(OC)cc4)cc3n2)cc1`: the inhibition is 13.5%.

On to `Cc1ccc(-n2cnc3cc(C(=O)NCc4ccc(F)cc4)ccc32)c(C)c1`, for which the inhibition is 16.5%.

Regarding `CC(Sc1nc2c(c(=O)[nH]1)CCCC2)C(=O)Nc1cc(C(F)(F)F)ccc1Cl` (stereo unspecified), the inhibition is -19.2%.

For `Cc1cccc(C(=O)NCCc2nc3ccccc3n2Cc2ccc(Cl)cc2)c1`, the inhibition is -6.29%.

`Cc1ccc(OC(C)C(=O)N2CCN(CCc3ccncc3)CC2)cc1C` (stereo unspecified): the inhibition turned out to be 15.6%.

In the case of `CCOC(=O)c1cccc(NS(=O)(=O)c2ccc3[nH]c4c(c3c2)CCCC4)c1`, the inhibition was -6.41%.

Turning to `O=c1c2oc3ccccc3c2n(Cc2ccc(F)cc2)c(=O)n1Cc1ccco1`, the inhibition amounted to 4.63%.

`CCCCn1c(=NC(=O)c2c(-c3c(F)cccc3Cl)noc2C)c(C(=O)OCC)cc2c(=O)n3ccccc3nc21`: the inhibition was -7.79%.

`Cc1ccc(-c2noc(-c3ccc(NCc4cccnc4)c([N+](=O)[O-])c3)n2)cc1`: the inhibition was -4.51%.

As for `O=C(NCc1cccc(F)c1)c1ccc(CN2CC(=O)N3CCCCC3C2=O)cc1` (stereo unspecified), the inhibition is -4.67%.

With `O=c1c(=O)n(-c2ccccc2)ccn1Cc1c(F)cccc1Cl`, the inhibition worked out at 19.9%.

As to `COc1cc(CNCCSc2nnnn2C)ccc1OCc1ccc(C)cc1`, the inhibition was 5.37%.

As to `CCSc1ncc(Cl)c(C(=O)N(Cc2ccccc2)c2ccc(OC)cc2)n1`, the inhibition was -1.26%.

For the compound `CCOc1cccc(NC(=O)c2sc3nc(-c4ccc(F)cc4)ccc3c2N)c1`, the inhibition was -0.779%.

As to `O=C(COCc1cc(-c2cccs2)on1)N1CCN(c2ccc(F)cc2)CC1`, the inhibition came to 11.6%.

Consider `O=C(c1ccccc1)N1CCCC(c2nc3c(nnn3Cc3ccc(F)cc3F)c(=O)[nH]2)C1` (stereo unspecified), for which the inhibition was 1.62%.

`Cc1nc2cccnc2n1C1CCN(C(=O)Nc2ccccc2)CC1`: the inhibition turned out to be 4.1%.

On to `Cc1cc(C)cc(N2CC(c3nnc(NC(=O)c4ccco4)s3)CC2=O)c1` (stereo unspecified), for which the inhibition turned out to be 5.99%.

With `COc1cc(C(=O)Nc2ccc(-n3c(C)nc4ccccc4c3=O)cc2)cc(OC)c1OC`, the inhibition came out at 11.2%.

`Cc1ccc(SCC(=O)OCC(=O)N(C)CC(=O)Nc2ccc(F)cc2)cc1C`: the inhibition is active: 38.3%.

For the compound `O=C(NC1CCN(Cc2ccc3ccccc3c2)CC1)c1ccccc1`, the inhibition is active: 50.9%.

On to `COc1ccc(N2CCN(C(=O)CCS(=O)(=O)c3cc(Br)cc4c3N(C(=O)C3CC3)CC4)CC2)cc1`, for which the inhibition is -4.3%.

For `COc1ccc(NC(=O)Nc2nnc(N3CCCCCC3)s2)c(OC)c1`, the inhibition is 20.1%.

On to `COc1ccc(NC(=O)CN2C(=O)COc3ccc(S(=O)(=O)N4CCOCC4)cc32)cc1Cl`, for which the inhibition was determined as 11.6%.

Take `O=C(Nc1ccc(NC(=O)c2cccs2)cc1)c1ccc2c(c1)OCCO2`: the inhibition was active: 34.2%.

For `CCOC(=O)CNC(=O)c1cn(CC(C)C)c(=O)c2cc(OC)c(OC)cc12`, the inhibition was active: 31.2%.
